Screen size: about 390,000 compounds; about 1,400 (0.36%) were called active. The inconclusive results got no clear call from the source; some entries with a clear call stand among them for comparison. The call rests on the fitted dose curve; in most records, active means well fitted inhibition curve with a large enough effect; inconclusive means small, poorly fitted or top-dose-only effect; inactive means no such curve, though single readings can be large or run the other way. Where the call is inconclusive, the potency comes from a doubtful curve fit.
target: Flap endonuclease 1 (Homo sapiens) (UniProt P39748); experiment: qHTS Assay for the Inhibitors of Human Flap endonuclease 1 (FEN1).; further: nearly all actives have a fitted effect of over 65% in size; conditions: Recombinant FEN1 flap cleavage, fluorescence, 15 min; series mostly up to 114 µM
Outline: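 FEN1 at 10 nM, compound pretreatment for 15 min (room temperature), 50 nM final substrate to initiate; endpoint reads at 0 and 15 min; DMSO-only plates used as vehicle background.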
Potency means the concentration at half of the fitted maximal effect; tags describe the fitted curve by direction and shape.

Chain of UniProt P39748 (P39748 whole entry, looked up): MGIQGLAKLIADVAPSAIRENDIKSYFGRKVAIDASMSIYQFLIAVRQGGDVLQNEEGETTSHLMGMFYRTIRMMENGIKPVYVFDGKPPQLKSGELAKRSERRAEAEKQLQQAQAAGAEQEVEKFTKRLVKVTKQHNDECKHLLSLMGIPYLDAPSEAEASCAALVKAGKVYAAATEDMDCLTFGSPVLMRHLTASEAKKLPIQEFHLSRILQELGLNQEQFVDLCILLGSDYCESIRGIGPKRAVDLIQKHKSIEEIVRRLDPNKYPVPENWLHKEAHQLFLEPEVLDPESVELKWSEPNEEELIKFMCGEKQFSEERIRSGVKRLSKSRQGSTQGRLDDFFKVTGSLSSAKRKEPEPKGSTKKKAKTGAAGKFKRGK

| Structure (SMILES) | Potency |
| --- | --- |
| COc1ccc(C(C)(C)C)cc1NC(=O)COC(=O)c1ccc([N+](=O)[O-])o1 | active: 25.1 µM |
| Cn1nc(-c2ccccc2)cc1NC(=O)Nc1ccc(C(C)(C)C)cc1 | inconclusive: 28.2 µM [inhibitor, partial curve, poor fit] |
| Cc1ccc(O)c(-c2n[nH]c3c2C(c2ccc(F)cc2)N(Cc2ccco2)C3=O)c1 (stereo not given) | inactive |
| COC(=O)c1cc(C(=O)OC)n(Cc2ccc(C)cc2)c1C | inconclusive: 39.8 µM [inhibitor, partial curve, poor fit] |
| CCOc1ccc(N(CC(=O)N/N=C/c2ccc(OC(C)C)cc2)S(C)(=O)=O)cc1 | inconclusive: 35.5 µM [inhibitor, partial curve, poor fit] |
| COc1cc(=O)n2c(-c3ccccc3)csc2n1 | inactive |
| COc1ccc(-n2nc(C(=O)NCC(=O)NCCCN3CCCCCC3)c3ccccc3c2=O)cc1Cl | inconclusive: 89.1 µM [inhibitor, partial curve, poor fit] |
| Cc1ccc(-c2cc(C(=O)N3CCN(c4ncccn4)CC3)c3cc(Br)ccc3n2)o1 | inactive |
| CC(C)NC(=O)c1sc(=S)n2c1[nH]c(=O)c1ccc(C(=O)NCCc3ccc(Cl)cc3)cc12 | inactive |
| Cc1ccc2cc(C(c3nnnn3Cc3ccccc3)N3CCc4ccccc43)c(=O)[nH]c2c1 (stereo not given) | inconclusive: 44.7 µM [inhibitor, partial curve] |
| CCN(CC)CCN(C(=O)c1ccc2ncsc2c1)c1nc2cc3c(cc2s1)OCO3 | inconclusive: 79.4 µM [inhibitor, partial curve, poor fit] |
| Cc1c(O)ccc2c1OC(C)(C)CC2 | inactive |
| O=C(O)c1ccc(N=N/C(=N\Nc2ccc(C(=O)O)cc2)c2ccccc2)cc1 | inconclusive: 56.2 µM [inhibitor, partial curve, poor fit] |
| COc1cc2c(NC3CCN(C)CC3)nc(N3CCCN(C)CC3)nc2cc1OCCCCN(C)C | active: 28.2 µM |
| COc1ccc(OC)c(NC(=O)CSc2ncnc3sc(C)cc23)c1 | inconclusive: 44.7 µM [inhibitor, partial curve] |
| CC(C)CC1=C/C(=C/c2ccc(-c3ccccc3)o2)C(=O)O1 | inconclusive: 56.2 µM [inhibitor, partial curve] |
| O=c1[nH]c(=S)[nH]c2c1C(c1ccc(Br)cc1)c1c([nH]c(=S)[nH]c1=O)O2 | active: 17.8 µM |
| CCOc1c(Br)cc(/C=C2\C(=O)N(CCC#N)N=C2C)cc1OC | inconclusive: 50.1 µM [inhibitor, partial curve] |
| Cc1ccc(-n2nc3c(=O)n(C(C)C(=O)NCc4ccccc4C)nc(C)c3c2C)cc1 (stereo not given) | inconclusive: 89.1 µM [inhibitor, single point] |
| Cc1ccc2nc(Cl)c(/C=N/Nc3ccc(C(=O)O)cc3)cc2c1 | active: 44.7 µM |
| CC1(C)Cc2c(c(-c3ccco3)nc3sc4c(NCC5CCCO5)ncnc4c23)CO1 (stereo not given) | inactive |
| Cc1ccc(F)cc1NC(=O)CSc1nc(Nc2ccccc2)nc(N2CCOCC2)n1 | inactive |

| Structure (SMILES) | Potency |
| --- | --- |
| CCOC(=O)C1=C(Cc2ccc(F)cc2)C(=O)c2ccccc2C1=O | inconclusive: 50.1 µM [inhibitor, partial curve, poor fit] |
| Cc1ccc(C(=O)NC2(C(F)(F)F)N=C(c3ccccc3)N(C3CCCCC3)C2=O)cc1 (stereo not given) | inactive |
| N#CC1=C2SCN(Cc3ccccc3)CN2C(=O)CC1c1ccccc1F (stereo not given) | inconclusive: 11.2 µM [inhibitor, partial curve] |
| O=C(CSc1nc2c(cnn2-c2ccc(F)cc2)c(=O)[nH]1)Nc1ccccc1C(F)(F)F | inactive |
| COc1ccc(/C=C2/SC(=O)N(CCCCCC(=O)Nc3ccccc3C(=O)O)C2=S)cc1 | inconclusive: 50.1 µM [inhibitor, partial curve] |
| COc1cc2c(cc1OC)CN(c1nc(CN3CCOCC3)nc3sc4c(c13)CCC(C)C4)CC2 (stereo not given) | inconclusive: 50.1 µM [inhibitor, partial curve, poor fit] |
| CCCCNC(=O)c1sc2ncnc(N3CCc4ccccc4C3)c2c1C | inconclusive: 89.1 µM [inhibitor, partial curve, poor fit] |
| CCCCc1nn2c(=O)cc(COC(=O)c3ccccc3NC(=O)c3cccc(C)c3)nc2s1 | inactive |
| Nc1ncnc2oc(-c3ccoc3)c(-c3ccco3)c12 | active: 17.8 µM |
| Fc1ccc(CNC(=S)Nc2cccc(C(F)(F)F)c2)cc1 | inactive |
| CCC1CCCCN1C(=O)c1cc(-c2ccc(Cl)c(Cl)c2)on1 (stereo not given) | inconclusive: 79.4 µM [inhibitor, partial curve, poor fit] |
| Cc1ccc2c(c1)N(C(=O)N1CCC(C(=O)NCc3ccccc3F)CC1)CC(C)O2 (stereo not given) | inactive |
| COC1=C(OC)C(=O)c2ccccc2C1=O | inconclusive: 11.2 µM [inhibitor, full curve, poor fit] |
| CN1CCC/C1=C1/C(=O)N(c2ccccc2)N=C1NC(=O)Nc1cccc(Cl)c1 | inconclusive: 70.8 µM [inhibitor, single point] |
| Cc1cc(Oc2nc3ccccn3c(=O)c2/C=C(\C#N)c2nc3ccccc3s2)ccc1Cl | inactive |
| COCCN(C(=O)CSc1nc(-c2ccccc2)cn1N)c1c(N)n(Cc2ccccc2)c(=O)[nH]c1=O | inactive |
| Cc1ccc2c(c1)c1c(c(=O)n(-c3ccccc3C)c(=O)n1Cc1cccc(F)c1)n2C | inactive |
| CCCCCCCCCCCCN1[C@@H](CC(C)=O)c2cc(F)cc(F)c2S1(=O)=O | inconclusive: 50.1 µM [inhibitor, partial curve, poor fit] |
| CCOc1cc(S(=O)(=O)Nc2ccc(CC)cc2)ccc1Cl | inconclusive: 79.4 µM [inhibitor, partial curve, poor fit] |
| CN(Cc1ccccc1)c1ccc(/C=C/c2nc3ccccc3s2)cc1 | active: 35.5 µM |
| Cc1ccc(C(=O)Nc2nc(-c3ccco3)c(-c3ccco3)s2)o1 | inconclusive: 50.1 µM [inhibitor, partial curve, poor fit] |
| O=C(O)c1ccc(N2C(=O)/C(=C/c3ccc(-c4ccc([N+](=O)[O-])cc4)o3)C=C2c2ccccc2)cc1 | inconclusive: 31.6 µM [inhibitor, partial curve, poor fit] |

| Structure (SMILES) | Potency |
| --- | --- |
| Cn1cnc2c1c(=O)n(Cc1cccc(F)c1)c(=O)n2C | inactive |
| O=C(O)CSc1c2c(nc3cc(C(=O)Nc4ccc(F)c(Cl)c4)ccc13)CCCC2 | inconclusive: 70.8 µM [inhibitor, partial curve] |
| Oc1c(Br)cc(/C=N/Nc2nncc3ccccc23)cc1Br | inconclusive: 31.6 µM [inhibitor, partial curve, poor fit] |
| C[C@@H]1O[C@@H](OC[C@H]2O[C@@H](Oc3cc(O)c4c(=O)cc(-c5ccc(O)c(O)c5)oc4c3)[C@H](O)[C@@H](O)[C@@H]2O)[C@H](O)[C@H](O)[C@H]1O | inactive |
| Cc1ccc(/C=C2\SC(=S)N(/N=C/c3cc([N+](=O)[O-])ccc3O)C2=O)o1 | active: 50.1 µM |
| O=C(NCC(O)c1ccc([N+](=O)[O-])cc1)Nc1ccccc1 (stereo not given) | inconclusive: 89.1 µM [inhibitor, single point] |
| COc1ccc(CCNC(=O)c2cc3c(=O)n4ccccc4nc3n(Cc3ccco3)c2=N)cc1OC | inactive |
| COc1ccc(OC)c(/C(O)=C/C(=O)C(=O)Nc2ccccc2OC)c1 | inconclusive: 50.1 µM [inhibitor, partial curve] |
| O=C(CSc1ccc2nc(-c3ccccc3)cn2n1)Nc1ccccc1 | inactive |
| CC(=O)c1ccc(NC(=O)CSc2nnc3c(n2)[nH]c2ccccc23)cc1 | inconclusive: 79.4 µM [inhibitor, single point] |
| O=C1COc2ccc(C(=O)COC(=O)/C=C/c3ccc(Br)o3)cc2N1 | inconclusive: 63.1 µM [inhibitor, partial curve, poor fit] |
| O=C(O)c1ccccc1Nc1cccc(OCc2ccc3ccccc3n2)c1 | inconclusive: 5.97 µM [inhibitor, full curve] |
| CC1=C/C(=C(/c2ccc(O)c(C)c2)c2ccccc2S(=O)(=O)O)C=CC1=O | inconclusive: 44.7 µM [inhibitor, partial curve, poor fit] |
| O=C(N/N=C/c1ccc(Br)s1)c1ccccn1 | inconclusive: 44.7 µM [inhibitor, partial curve] |
| CC1=NNC(=O)C1CCC(=O)N/N=C/c1ccco1 (stereo not given) | inconclusive: 100 µM [inhibitor, single point] |
| CCOC(=O)CN(C(=O)CSc1nnc(CNc2ccc(C)cc2C)o1)c1ccccc1 | inconclusive: 89.1 µM [inhibitor, partial curve, poor fit] |
| COc1ccc2cc1Oc1ccc(cc1)C[C@H]1c3c(cc4c(c3Oc3cc5c(cc3OC)CCN(C)[C@@H]5C2)OCO4)CCN1C | inconclusive: 28.2 µM [inhibitor, full curve, poor fit] |
| CC[C@@]12C(=O)N(c3cccc(Br)c3)C(=O)N1[C@H](c1ccc(OC)cc1)[C@@H]1C(=O)N(C(C)(C)C)C(=O)[C@@H]12 | inconclusive: 70.8 µM [inhibitor, partial curve, poor fit] |
| COc1cc(C(O)C(=O)O)ccc1O (stereo not given) | inconclusive: 5.32 µM [inhibitor, single point] |
| O=C(NCCSc1ccc(Br)cc1)c1ccc2nc[nH]c2c1 | inactive |
| CCN1C(=O)[C@H]2[C@H]3CN=C(SCc4ccccc4)N3[C@@](Cc3ccccc3)(C(=O)OC)[C@H]2C1=O | inconclusive: 25.1 µM [inhibitor, single point] |
